In paper PMC4336329 (PLoS ONE, 2015):
In all, about 310,000 compounds went through this assay and about 14,000 (4.5%) showed an effect of 50% or more. Effects have a minus sign here. The list shows a part of the results.

Biological target: human ether-à-go-go-related gene (hERG) potassium channel (human, UniProt Q12809)
Assay: primary screen, population patch clamp on CHO cells stably expressing hERG
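Note: peak tail current of the secondary pulse compared with the same well before compound.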

Sequence of human ether-à-go-go-related gene (hERG) potassium channel (Q12809 whole entry, looked up): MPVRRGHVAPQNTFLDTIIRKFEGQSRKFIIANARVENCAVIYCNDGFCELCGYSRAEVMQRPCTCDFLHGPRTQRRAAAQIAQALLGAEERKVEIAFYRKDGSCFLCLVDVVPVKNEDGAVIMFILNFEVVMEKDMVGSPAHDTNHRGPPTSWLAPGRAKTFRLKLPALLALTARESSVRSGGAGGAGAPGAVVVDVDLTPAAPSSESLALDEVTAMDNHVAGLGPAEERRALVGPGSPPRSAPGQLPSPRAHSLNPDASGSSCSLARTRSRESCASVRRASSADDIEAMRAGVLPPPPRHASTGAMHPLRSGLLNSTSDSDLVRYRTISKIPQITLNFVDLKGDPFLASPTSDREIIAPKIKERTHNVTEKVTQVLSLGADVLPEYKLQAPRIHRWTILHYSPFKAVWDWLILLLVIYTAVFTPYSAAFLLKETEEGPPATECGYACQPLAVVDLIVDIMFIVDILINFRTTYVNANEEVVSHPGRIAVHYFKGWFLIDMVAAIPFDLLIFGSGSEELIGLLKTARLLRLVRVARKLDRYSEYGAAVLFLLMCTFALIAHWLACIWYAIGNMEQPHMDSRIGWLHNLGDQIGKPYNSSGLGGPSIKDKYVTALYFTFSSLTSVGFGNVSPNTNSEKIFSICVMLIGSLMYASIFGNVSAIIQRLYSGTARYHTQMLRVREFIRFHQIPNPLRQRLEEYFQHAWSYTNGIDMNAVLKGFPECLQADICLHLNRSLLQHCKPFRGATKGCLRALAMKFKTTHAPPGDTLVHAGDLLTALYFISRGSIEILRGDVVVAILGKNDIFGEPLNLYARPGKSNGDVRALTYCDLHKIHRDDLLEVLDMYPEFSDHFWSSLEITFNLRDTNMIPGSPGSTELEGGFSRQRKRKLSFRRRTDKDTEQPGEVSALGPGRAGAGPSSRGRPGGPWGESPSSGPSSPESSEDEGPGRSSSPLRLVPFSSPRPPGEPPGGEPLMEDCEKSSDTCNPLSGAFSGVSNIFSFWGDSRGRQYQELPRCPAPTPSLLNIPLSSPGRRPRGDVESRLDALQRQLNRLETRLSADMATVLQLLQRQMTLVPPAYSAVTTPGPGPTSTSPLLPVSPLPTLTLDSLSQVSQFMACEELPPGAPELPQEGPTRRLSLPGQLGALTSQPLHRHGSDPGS

Row | Structure (SMILES) | hERG current change (%, negative = inhibition) at 10uM [%]
1 | CCOC(=O)[C@H]1[C@H]2COc3ccc(OC)cc3[C@@H]2N2C(=O)c3cc(OC)c(OC)cc3NC(=O)[C@@]12C | -4.71
2 | O=C(CCC(=O)N(CC(=O)NC1CCCC1)Cc1ccc2c(c1)OCO2)Nc1nccs1 | 5.18
3 | COc1ccccc1N1CCN(CCCCCCOc2ccc(F)cc2)CC1 | -67.2
4 | Cc1[nH]c2c(C)cccc2c1CC(=O)O | 12.9
5 | Cc1[nH]c2ccccc2c1C(=O)C(=O)N1CCN(c2ccccc2Cl)CC1 | 3.63
6 | CCC(CC)C(=O)c1c[nH]c(C(=O)NCCc2ccccn2)c1 | 6.03
7 | COC/C=C/C1=CC2=CC(=O)C(C)(OC(=O)c3cnc4ccccc4n3)C(=O)C2=CN1CCCCO (stereo not shown) | 2.04
8 | CCN(CC)C(=O)c1ccc(O)c(OC)c1 | 34.6
9 | COc1cc(/C=C2\C=CC(=O)O2)cc(OC)c1 | 4.84
10 | Cc1ccc(-c2noc(CCCC(=O)NC3CCCC3)n2)cc1 | -8.35
11 | CCN(CC)CC.CN1C(=O)/C(=C2/C=Cc3ccccc3N2CCCS(=O)(=O)O)SC1=S | -2.53
12 | O=C(N1CCOCC1)C(F)(F)C(=O)N1CCOCC1 | -1.29
13 | COC(=O)c1ccc(NC(=S)N2CCCC2)cc1 | 19.5
14 | COc1ccnc(Oc2cccc(C(F)(F)F)c2)c1C(=O)N/C=N/OCc1ccccc1F | 14.3
15 | O=C(O)c1cc2ccc3ccccc3c2[nH]1 | 1.56
16 | CCOC(=O)c1cc(=O)n(Cc2ccccc2C)c2ccccc12 | -43.2
17 | CC(C)(C)NC(=O)COc1ccccc1C#N | 37.6
18 | COc1ccc(NC(=O)CSc2nnc(-c3ccccc3)n2Cc2ccco2)c(OC)c1 | -26.4
19 | CCC(=O)NCCCCCCCCCNC(=O)CC | 16.1
20 | CCN1C(=O)C(=O)N(CC(=O)Nc2ccccc2Oc2ccccc2)C1=O | 21.9
21 | CCOC(=O)N1CCN(C(=O)Cn2cc3c(n2)CCCC3)CC1 | -72.4
22 | O=C(Cc1ccc(Cl)cc1)NCCS(=O)(=O)N1CCN(c2ccccc2)CC1 | -3.36

Row | Structure (SMILES) | hERG current change (%, negative = inhibition) at 10uM [%]
23 | Cc1cc(C)c(C2=Nn3c(C)nnc3SC2C)cc1C (stereo not shown) | 5.85
24 | O=C(CN(Cc1ccccc1F)C(=O)c1csnn1)NC1CCCCC1 | 6.81
25 | CCOc1ccc(OCCNC(=O)C(NC(=O)c2c(F)cccc2F)C(C)C)cc1 (stereo not shown) | -10.6
26 | COc1ccc(OC)c(Cc2nnc(CCC(=O)NC3CCCCCCC3)o2)c1 | -9.71
27 | CC(C)NC(=O)NC(=O)COC(=O)c1cccc(OC(F)F)c1 | 10.6
28 | NCCCNC(=O)c1cc2ccccc2[nH]1 | 5.31
29 | O=C(CCNC(=O)C1CCN(S(=O)(=O)c2ccccc2)CC1)NCc1cccc(C(F)(F)F)c1 | -26.1
30 | Cc1nnc(SCC(N)=O)n1CC1CCCO1 (stereo not shown) | 3.55
31 | Cc1ccccc1COC[C@H](CC(C)C)N1CCN(C(=O)c2cccc(C(F)(F)F)c2)CCC1=O | -11.3
32 | CC(Sc1nnc2ccccn12)C(=O)NCc1ccc2c(c1)OCO2 (stereo not shown) | 4.95
33 | O=C(CN1C(=O)/C(=C\c2cccs2)SC1=S)Nc1cccc(C(=O)O)c1 | 13.5
34 | COc1ccc(-c2csc(NC(=O)c3cc(-c4cccs4)nc4ccccc34)n2)c(OC)c1 | 3.25
35 | C/C(CCN1CCc2nc(-c3ccccc3)c(-c3ccccc3)cc2C1)=N\O[C@H](C)c1cn([C@H](CO)Cc2ccccc2)nn1 | -17.7
36 | CC(C)NC(=O)c1ccccc1S(=O)(=O)c1ccccc1C#N | 5.28
37 | CCOc1cc(/C=N/Nc2nc(Nc3ccccc3)nc(N3CCCCC3)n2)ccc1OCC(=O)O | 1.61
38 | COc1ccc(C(=O)OCC(=O)N2C(C)CCCC2C)cc1[N+](=O)[O-] (stereo not shown) | -6.13
39 | O=C(CSc1nc(O)cc(=O)n1-c1ccccc1)Nc1nc2ccccc2s1 | 16
40 | C/C(CC(=O)NC1CCCCCC1)=N\NC(=O)c1cnccn1 | 2.01
41 | O=C(N/N=C/c1ccncc1)c1cc(-c2ccc(Br)s2)[nH]n1 | -12.4
42 | Cc1cc(C)n(-c2cc(-c3ccccc3)nc(C)n2)n1 | 0.36
43 | CCSc1nnc(CCNC(=O)OC(C)(C)C)o1 | 7.7
44 | O=C(CCCN1C(=O)c2cccnc2C1=O)Nc1ccc(Br)cc1 | -1.96

Row | Structure (SMILES) | hERG current change (%, negative = inhibition) at 10uM [%]
45 | CN1CCN(CC#CC2(O)CCCCC2)CC1 | 6.31
46 | Cn1c(CSCc2ccc(F)cc2)n[nH]c1=S | 19.8
47 | Cc1cc(NC(=O)CSc2nc(=O)n3cccc(C)c3n2)no1 | -4.2
48 | Cc1nc2sc3c(O)cc(=O)[nH]c3c2c(C)c1C | 0.113
49 | CC(=O)NC1(c2ccccc2)CCN(CC(=O)N2CCC(C)CC2)CC1 | 26.5
50 | COc1ccc(NC(=O)CN(C)C(=O)/C=C/c2cn(-c3ccccc3)nc2-c2ccc(C)cc2)cc1 | 13.8
51 | C=CCn1c(SCC(=O)Nc2ccccc2OC)nnc1-c1ccccn1 | -32.1
52 | Cc1cc(C(=O)CCC(=O)N2CCN(c3ccccc3F)CC2)c(C)s1 | -30.3
53 | CCCc1nnc(NC(=O)CN2CCOCC2)s1.Cl | 11.3
54 | Cc1cc(=O)oc2cc(OCC#N)ccc12 | 11.6
55 | CC(=O)NCCN=Cc1sc2ccccc2c1O | 9.56
56 | O=S(=O)(F)c1ccc2nc(-c3cccc(Sc4ccccc4)c3)cc(Cl)c2c1 | 10.4
57 | Cc1ncc([N+](=O)[O-])n1Cc1ccc(Br)cc1 | -26.2
58 | COc1ccc(NC(=O)Nc2cc(C(=O)O)ccc2N2CC3CC(C2)c2cccc(=O)n2C3)c(OC)c1 (stereo not shown) | 8.14
59 | O=c1c(C/C=C/c2ccccc2)c(O)ccn1Cc1ccc(Cl)cc1Cl | 24.2
60 | CCCCCC(=O)Nc1cccc(C2=NOC3(C2)C[C@H](C(N)=O)N(C(=O)[C@H]2CCC(=O)N2)C3)c1 (stereo partly shown) | 19.2
61 | O=C(CS(=O)(=O)c1ccccc1)NCc1ccco1 | 13.2
62 | CC(=O)Nc1ccc(NC(=O)CSc2ccc3nnc(-c4ccccn4)n3n2)cc1 | 17.7
63 | Cc1ccc(OCCOCCN2CCCC2)c(Br)c1.O=C(O)C(=O)O | -24.7
64 | CCOc1ccccc1C1CC(=O)NC2=C1C(=O)CCC2 (stereo not shown) | 13.6
65 | Cn1cccc1Cc1nnc(SCC(=O)N2CCCCCC2)n1CCc1ccccc1 | -5.44
66 | CCc1ccccc1N(CC(=O)Nc1cccc(N(C)S(C)(=O)=O)c1)S(C)(=O)=O | -0.199

Row | Structure (SMILES) | hERG current change (%, negative = inhibition) at 10uM [%]
67 | Cc1ccnc(NC(=O)c2ccc(Cl)c(S(=O)(=O)N3CCCCC3)c2)c1 | -79.1
68 | Cc1ccc(N2C(=O)N(CC(=O)Nc3ccc(C)c(C)c3[N+](=O)[O-])C(=O)C2C)cc1 (stereo not shown) | -1.46
69 | C=CCCC(=O)N1CCC(Oc2cccc(C(=O)NCc3ccccn3)c2)CC1 | -17.4
70 | C[C@]12CC3CC(N)(C1)C[C@@](C)(C3)C2.Cl | -0.247
71 | C/C=C(\C)C(=O)Nc1cccc(C2=NOC3(C2)C[C@H](C(N)=O)N(C(=O)CC#N)C3)c1 (stereo partly shown) | 17
72 | Cc1nnn(C23CC4CC(CC(C(=O)NN)(C4)C2)C3)n1 | 12.5
73 | CN1CCC/C1=C1/C(=O)N(c2ccccc2)N=C1NC(=O)Nc1cccc(Cl)c1 | 16.1
74 | CCC1(C)CN(S(=O)(=O)OCC(Cl)(Cl)Cl)C(=O)N1 (stereo not shown) | 3.12
75 | O=C(Nc1ccc(F)c(Cl)c1)C1CC(=O)n2c(nc3ccccc32)N1 (stereo not shown) | 10.7
76 | CCOc1cccc(N2C(=O)CC(NCc3ccc(S(N)(=O)=O)cc3)C2=O)c1 (stereo not shown) | -0.392
77 | CSCC[C@H](NS(=O)(=O)c1ccc(C)cc1)C(=O)N1CCC(C(=O)N[C@@H](Cc2ccccc2)C(=O)O)CC1 | -5.26
78 | CCN1/C(=C/C(=O)c2ccco2)Sc2ccccc21 | 8.09
79 | CCN(CC(=O)Nc1cccc(OC)c1)C(=O)c1cnc(Cl)c(Cl)c1 | 5.79
80 | O=C(COC(=O)c1ccc(Br)cc1)NCCC1=CCCCC1 | -4.48
81 | Nc1nonc1-n1nnc(C(=O)N/N=C/c2cc(Br)ccc2O)c1CSC1=NCCS1 | 9.14
82 | CCOc1ccc(N2C(=O)CC(N(CCc3ccc(OC)cc3)C(=O)/C=C/C(=O)O)C2=O)cc1 (stereo not shown) | 41.8
83 | Cc1cc(-c2nc(C)c(C(=O)NNC(=O)NC(C)C)s2)no1 | 2.44
84 | COc1ccc2ccccc2c1C1NC(=O)NC(C)=C1[N+](=O)[O-] (stereo not shown) | 0.527
85 | Cc1cccc(OCC(=O)Nc2nnc(S(=O)(=O)N3CCC(C)CC3)s2)c1 | -0.769
86 | CC(=O)c1cc2c(cc1NC(=O)c1c(-c3ccccc3)noc1C)OCO2 | 13.7
87 | CC(=O)N1CCc2cc(S(=O)(=O)NCCCN3CCN(Cc4ccccc4)CC3)ccc21 | -16.6
88 | Cc1cccc(NC(=O)N2CCC(NC(=O)c3ccccc3C)CC2)c1 | -15.2
